# In all, about 310,000 compounds went through this assay and about 14,000 (4.5%) showed an effect of 50% or more. Effects have a minus sign here. This is one part of the list.
# Target: human ether-à-go-go-related gene (hERG) potassium channel (human, UniProt Q12809)
# Assay: primary screen, population patch clamp on CHO cells stably expressing hERG
# 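Further: peak tail current of the secondary pulse compared with the same well before compound.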
# human ether-à-go-go-related gene (hERG) potassium channel, sequence (Q12809 whole entry, looked up): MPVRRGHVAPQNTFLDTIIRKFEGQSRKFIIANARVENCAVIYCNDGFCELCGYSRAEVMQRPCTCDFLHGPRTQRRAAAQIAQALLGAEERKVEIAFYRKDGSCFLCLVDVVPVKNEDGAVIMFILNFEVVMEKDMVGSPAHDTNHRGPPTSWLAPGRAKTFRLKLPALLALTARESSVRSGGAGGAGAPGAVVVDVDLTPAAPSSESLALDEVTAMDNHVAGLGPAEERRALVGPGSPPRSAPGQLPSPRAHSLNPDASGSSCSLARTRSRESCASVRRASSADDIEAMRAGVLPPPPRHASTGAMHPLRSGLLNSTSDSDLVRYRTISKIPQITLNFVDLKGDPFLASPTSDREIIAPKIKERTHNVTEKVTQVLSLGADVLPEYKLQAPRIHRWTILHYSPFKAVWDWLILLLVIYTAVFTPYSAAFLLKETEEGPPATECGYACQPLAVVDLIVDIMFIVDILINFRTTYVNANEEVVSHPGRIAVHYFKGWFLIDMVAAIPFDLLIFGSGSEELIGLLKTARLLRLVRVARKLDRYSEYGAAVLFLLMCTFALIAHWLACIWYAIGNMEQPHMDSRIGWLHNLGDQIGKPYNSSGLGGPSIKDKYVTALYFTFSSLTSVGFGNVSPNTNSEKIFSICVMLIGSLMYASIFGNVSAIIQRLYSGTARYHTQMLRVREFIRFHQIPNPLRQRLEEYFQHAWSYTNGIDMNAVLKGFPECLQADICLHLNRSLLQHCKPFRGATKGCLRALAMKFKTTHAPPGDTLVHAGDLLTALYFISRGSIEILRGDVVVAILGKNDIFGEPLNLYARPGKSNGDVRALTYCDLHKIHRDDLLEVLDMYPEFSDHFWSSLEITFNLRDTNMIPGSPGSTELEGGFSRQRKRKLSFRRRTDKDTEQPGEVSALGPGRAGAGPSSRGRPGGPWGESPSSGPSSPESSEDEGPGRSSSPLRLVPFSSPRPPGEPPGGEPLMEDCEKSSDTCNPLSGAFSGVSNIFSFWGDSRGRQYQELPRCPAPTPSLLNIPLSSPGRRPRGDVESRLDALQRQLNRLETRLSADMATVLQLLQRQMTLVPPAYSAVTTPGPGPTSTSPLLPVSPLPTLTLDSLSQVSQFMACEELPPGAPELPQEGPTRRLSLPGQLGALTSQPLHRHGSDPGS
row,SMILES,"hERG current change (%, negative = inhibition) at 10uM [%]"
1,Cc1ccc(C)c(N2CCN(C(=O)c3ccc(Cn4c(=S)[nH]c5ccc(N6CCOCC6)cc5c4=O)cc3)CC2)c1,-5.3
2,CCOc1ccc(S(=O)(=O)N2CCCC(C(=O)NCc3ccccn3)C2)cc1 (centres unmarked),-5.54
3,CN(C(=O)c1ccncc1)c1nnc(-c2cccnc2)s1,8.64
4,CC(C)Oc1ccc(/C(O)=C2/C(=O)C(=O)N(CCN(C)C)C2c2cccs2)cc1 (centres unmarked),-1.9
5,O=NN1CCCCC1,16.5
6,COC(=O)[C@H](C)NC(=O)Nc1ccccc1C(F)(F)F,13.7
7,COC(=O)c1ccc(CSc2nc3ccccc3c(=O)n2CC(C)C)o1,-8.97
8,CC1CCN(C2=NN3C(=N)/C(=C\c4ccc(OC(=O)c5ccco5)cc4)C(=O)N=C3S2)CC1,12.6
9,CC(C)c1ccc(C2NC(=S)NC3=C2C(=O)CCC3)cc1 (centres unmarked),14
10,CCn1cc(Cl)c(C(=O)Nc2ccc3c(c2)OCCO3)n1,18.4
11,O=c1c2ccccc2nc(-c2ccc(Br)cc2)n1Cc1ccccc1,-11.3
12,CCOC(=O)C(=CN=C(N)Nc1nc2ccccc2o1)C(=O)OCC,21.9
13,O=C(NC1CC1)C1=C[C@H](c2c[nH]c3ccccc23)C[C@H](OCc2ccc(CO)cc2)O1,-2.71
14,COc1ccc(NC(=O)CSc2ccc(-c3cccs3)nn2)c(OC)c1,15.5
15,CC#CCN1C(=O)N[C@@H](c2ccccc2)C(C(=O)OC)=C1C,5.33
16,CCOc1ccc(Oc2c(/C=N/NC(=O)C3CC3)c(C)nn2-c2ccccc2)cc1,8.41
17,CCOC(=O)C(NC(=O)c1ccccc1)(OCC1(CC)COC1)C(F)(F)F (centres unmarked),6.36
18,Oc1[nH]c2ccccc2c1C1=NCCCC1,12.6
19,COC(=O)C(Cc1ccc(O)cc1)NC(=O)C12CC3CC(CC(C3)C1)C2 (centres unmarked),25.5
20,CC(C)(C)c1ccc(C(=O)N2CCC3(CC2)NCCc2[nH]cnc23)cc1,-8.51
21,COC(=O)c1c(C(=O)OC)c(-c2ccccc2)n2c1CCC2,0.783
22,COc1cc(OC)nc(NC2OC(=O)c3ccccc32)n1 (centres unmarked),0.248
23,CC(=O)NC(C1C(=O)CC(C)(C)CC1=O)(C(F)(F)F)C(F)(F)F,14.4

row,SMILES,"hERG current change (%, negative = inhibition) at 10uM [%]"
1,Cc1ccc(-c2nc(C)sc2CC(=O)Nc2cccc(C)c2C)cc1,-24.7
2,COc1ccc(OC)c(S(=O)(=O)N2Cc3ccccc3CC2C(=O)O)c1 (centres unmarked),-0.319
3,O=S(=O)(Nc1ccc(C(F)(F)F)cc1)c1cnc[nH]1,10.2
4,Cc1ccc(S(=O)(=O)CC(=O)N2CCCC2)cc1,-0.506
5,Cc1cc(C)c2nc(C(F)(F)F)c(C#N)c(N)c2c1,17.4
6,Cc1cc(Cl)cc(Br)c1OCCNCC(C)O (centres unmarked),-18.7
7,Cc1ccc(Nc2ncnc(N)n2)cc1,9.24
8,CC(C)OC(=O)CSc1nnc(-c2cnccn2)n1-c1ccc(Cl)cc1,-29.6
9,CN(CC(=O)Nc1ccc2c(c1)OCCO2)S(=O)(=O)c1ccc(Br)s1,-5.77
10,Cc1ccc(C2Oc3ccccc3C3=C2C(c2cccs2)n2ncnc2N3)cc1 (centres unmarked),-7.55
11,COc1ccccc1C(=O)N1CCNC(=O)C1CC(=O)Nc1cccc(C)c1 (centres unmarked),12.3
12,COc1cc(OC)c(S(=O)(=O)N2CCOCC2)cc1S(=O)(=O)N1CCOCC1,13.9
13,COc1ccc(S(=O)(=O)N2CCOC2CNC(=O)C(=O)NCCN2CCOCC2)cc1 (centres unmarked),24.8
14,Cc1cc(C)c(C)c(S(=O)(=O)ON2C(=O)c3ccccc3C2=O)c1C,4.37
15,O=C(COc1ccccc1F)N1c2ccccc2CCc2ccccc21,7.72
16,CC(C)(C)C(O)C(Cc1ccccc1Cl)n1cncn1 (centres unmarked),19.1
17,COc1ccc(OC)c(C(=O)c2coc3cc(Br)c(O)c(Br)c23)c1,-7.56
18,Cc1ccc(C)c(NS(=O)(=O)c2ccc(NC(=O)CSc3ccc(Cl)cc3)cc2)c1,17.8
19,COC(=O)C1=NN(C(=O)c2cccc(Br)c2)C(O)(c2ccc(Cl)cc2)C1 (centres unmarked),13.4
20,Cc1ccc(S(=O)(=O)NC(CC(=O)N2CCC3(CC2)OCCO3)c2ccco2)cc1 (centres unmarked),3.51
21,O=Cc1coc2ccc3ccccc3c2c1=O,14.5
22,COc1ccc(-c2c(-c3ccc(O)cc3O)n[nH]c2C(F)(F)F)cc1,4.86
23,CN1C(=O)C(CC(=O)NCC2CCCCC2)SC1=Nc1ccccc1 (centres unmarked),2.41

row,SMILES,"hERG current change (%, negative = inhibition) at 10uM [%]"
1,COc1cccc(COc2ccccc2C2Nc3ccc(Br)cc3C(=O)N2NC(=O)c2ccncc2)c1 (centres unmarked),-4.31
2,COc1cccc(-c2cc(C(=O)NCc3cccs3)no2)c1,18
3,Cc1ccc(S(=O)(=O)NCCC(=O)NCc2ccc3c(c2)OCO3)cc1C,-11.6
4,CC(NC(=O)c1cnc2n(c1=O)CCS2)c1ccccc1 (centres unmarked),3.42
5,CC(C)CCNC(=O)CN(Cc1ccccc1Cl)C(=O)CCC(=O)Nc1ccccn1,-10.1
6,Cc1ccc2nc(NS(=O)(=O)c3cn(C)nc3C)sc2c1,0.0677
7,Cc1cc(NC(=S)NC(=O)/C=C/c2ccc(S(=O)(=O)N3CCOCC3)cc2)ccc1Br,17.8
8,O=C(c1coc2ccccc2c1=O)N1CCN(c2cccc(C(F)(F)F)c2)CC1,-11.2
9,CN(CC(N)=O)S(=O)(=O)c1ccc(F)cc1,-15.7
10,Cc1cc(NC(=O)c2cc(CC(C)C)on2)no1,7.66
11,Nc1nc2c(ncn2CCC(CO)CO)c(=O)[nH]1,-2.83
12,COc1ccc(N2CCN(C(=O)C(NC(=O)c3c(F)cccc3F)C(C)C)CC2)cc1 (centres unmarked),10.5
13,Cc1ccc(Cl)cc1NS(=O)(=O)c1cc2[nH]c(=O)c(=O)[nH]c2cc1C,23.6
14,COC(=O)COc1ccc2c(-c3cccc([N+](=O)[O-])c3)cc(=O)oc2c1,-31.8
15,CCC(=O)Nc1ccc(C(=O)CSc2nnc(-c3cccnc3)o2)cc1,0.499
16,CCSC1=C(C#N)C(c2ccc(OC)c(OC)c2)CC(=O)N1 (centres unmarked),5.77
17,CCc1nnc(NC(=O)c2csc3c2CCC(C)C3)s1 (centres unmarked),27.7
18,COc1ccc(Cl)cc1C(=O)Nc1ccc(NC(=O)C(C)C)cc1,213
19,CCN1CCN(C(=O)c2nn(-c3ccc(OC)cc3)c(=O)c3c2c2ccccc2n3C)CC1,-4.67
20,CC(C)NC(=O)c1ccccc1NC(=O)CCS(=O)(=O)Cc1ccccc1,0.824
21,CC(C)c1nnc(NC(=O)CSc2nc3ccccc3[nH]2)s1,3.98
22,CC(=O)c1sc(NC(=O)c2ccccc2F)nc1-c1ccccc1,18.7
23,O=C(CNc1n[nH]c(=O)[nH]c1=O)N/N=C/C1CC=CCC1 (centres unmarked),1.91

row,SMILES,"hERG current change (%, negative = inhibition) at 10uM [%]"
1,COc1ccc(NC(=O)CSc2nnc(-c3ccccc3Cl)n2Cc2ccco2)c(OC)c1,-29.2
2,COc1ccc(OC)c(CN2CCC(CNC(=O)Nc3cccc(Cl)c3)CC2)c1,-60.8
3,Cc1noc(C)c1COc1ccccc1C(=O)N1CCN(S(=O)(=O)c2cccc([N+](=O)[O-])c2)CC1,-31.3
4,Cc1ccc(Cn2c(O)c(N=NC(=S)Nc3ccccc3F)c3ccccc32)cc1,14.1
5,COc1ccc(CCNC(=O)c2oc3ccccc3c2C)cc1,-22.9
6,Cc1ccc(C(=O)Nc2ccccc2N2CCCCC2)cc1,-23.7
7,COc1cc2[nH]c(=S)nc(NCCC(C)C)c2cc1OC,-16.2
8,Cn1ccnc1C(=O)c1ccc(S(=O)(=O)N2CCCC2)cc1,33.9
9,CCn1c(CNC(=O)c2ccco2)nnc1SCC(=O)Nc1cc(C)c(C)cc1Br,-16.6
10,Cl.OC(c1ccc(F)cc1)(C1CCCCC1)C(CN1CCOCC1)c1ccccc1 (centres unmarked),12.1
11,COCCNC(=O)C1CC(c2cccc(OC)c2)=NO1 (centres unmarked),-0.681
12,Cc1cc(C)c(S(=O)(=O)N2CCCCC2C(=O)O)c(C)c1 (centres unmarked),20.4
13,COc1cccc2c(=O)n(CC(=O)NCCc3ccccc3)ccc12,7.56
14,CC(=O)c1cccc(NC(=S)N2CCC(Cc3ccccc3)CC2)c1,17.6
15,CCOc1ccc(S(=O)(=O)Nc2ccc(C(=O)NCC(c3ccccc3)N(C)C)cc2)cc1 (centres unmarked),-44.9
16,Cc1ccccc1NC(=O)NCCN1C(=O)C2C3C=CC(C3)C2C1=O (centres unmarked),15
17,O=C(Nc1nc(-c2ccccn2)cs1)c1ccc(Br)s1,7.34
18,CCOC(=O)c1c(NC(=O)c2c(Br)cnn2CC)sc(C)c1C,13.3
19,Cc1ccc(C(NC(=O)N2CC(C)OC(C)C2)C(Cl)Cl)cc1F (centres unmarked),-3.68
20,CCOC(=O)c1c(NC(=O)C(=O)N/N=C/c2ccc(OCC)cc2)sc2c1CCCCC2,4.71

# — article PMC4336329 (PLoS ONE, 2015)
